Read counts are not given, so values of variants with three or more changes are uncertain.

The record followed here is the RNAGym collection of RNA variant scans (doi:10.7554/elife.90254).

B1: LINE1-full (parent)
chain: UACGUAGGUGGUUUUCCCCUGAUAGUGCUAAGGGGGCCUGGAAGUUUGGACUGGGCAGAGCUCAACACAGCGUGGCAAAGUGGCUGUGGCUAGACUGCCUCUCUGGAUUCCUCGUCACUCAGCAGGGCAUCUCUGAGAGAAAUGCC

Variants of B1 are the subject of this series. Description: self-cleavage, relative activity (ratio to wild type); higher = more cleavage; in vitro, sequencing; the parent is a self-cleaving ribozyme.
On to A2G U45C A64G U130A A136U, for which the self-cleavage stood at 0. Under A2G U20C A22G G27A A69G U87C G106A stands 1.7; under G4A A92G U100C A124G G125U, 0; under A2G U9C U23C U85A, 0.31. Next, U5A U112A U115C: 1.43; U5A A42G C71A U104C: 1.61; U5A U39A U47C A57U U91A: 0.2. In the case of U5A A50U C111U U143C, the self-cleavage was 1.18. As for A2U U13C U20C U115C U134C, the self-cleavage stood at 0.

For U5A U12C A30G A94U A121U A142G, the self-cleavage amounted to 0.67. Under C3A U20A A141G stands 0.97.

Regarding A2G G36A A138U, the self-cleavage was 1.05. For U5A G58C A129G, the self-cleavage came to 0.15. Under G4A U112A A140U stands 1.24. Regarding U5A A42U A50G A124G A141U, the self-cleavage was 0.76. Next, U5A U12G U13C C123U A129U A136G: 1.18. For U5A A57G U115C, the self-cleavage was 0.92. Under C3U A22G C71A U85C A138G stands 0.09; under A2G C51U U52A A67G A92G G97A A129U, 0.2; under A2G U14C U104C, 0. As for C3U U119C A129G, the self-cleavage was determined as 0. Take A2G U47C A64G G72A: the self-cleavage amounted to 0.4. As for G4A U87C U100A U130A, the self-cleavage is 0.07.

For the variant A2G U12C U14G A69G, the self-cleavage is 1.53. As to A2G U9A U26C U39A, the self-cleavage came to 0.67. Consider A2G U96G A138G, for which the self-cleavage was 0. With C3U U13C A43G, the self-cleavage was 0.99. For the variant A2G A94G C113U A136G, the self-cleavage worked out at 0.43. For C3A U14C G34U A107U, the self-cleavage worked out at 1.25. As to U5A C131A A140G, the self-cleavage turned out to be 0.44. On to C3U U9G U12C A42U A79U, for which the self-cleavage amounted to 0.94.

Consider G4A G25A A50G U109C U112C U130C, for which the self-cleavage came to 2.3. Under U5A U132C A141G stands 1.24; under A2U U9A U26A A124G, 0.39; under C3U A77G U112C A140G, 0.89. Next, U5A A6G A43G U91A A136G: 0.79; C3U G44U G48U A124U A140G: 1.26.

A2G U96C A117U: the self-cleavage was found to be 0.25. For A2U A30U A43G, the self-cleavage is 1.9. As to G4C U13A U15A U45C, the self-cleavage was 0.46. For A2G U45C C128U, the self-cleavage turned out to be 2.87. As for C3U U13C C28G, the self-cleavage worked out at 1.72.

For the variant A2G U14A U15C A69U A142G, the self-cleavage came to 0.29. Under A2G U26G G34A U39A U45C A94U U102A stands 0.23. On to A2G U14C G60U, for which the self-cleavage was 0.12. Consider A2G U13C C131A, for which the self-cleavage is 1.04. Regarding A2G U14A U20A G54A A65G, the self-cleavage amounted to 0.21.

With G4C U15C U26C A142G, the self-cleavage worked out at 0.54. Consider U5A A140G A141C, for which the self-cleavage is 0.83.

Regarding U5A U12A C28U U39C A142G, the self-cleavage was 1.12.

As to G4U A42G A92U U112C, the self-cleavage was 2.36.

For the variant U5A U13C A31U U108C, the self-cleavage came to 0.86. As to C3U C66U U132C, the self-cleavage worked out at 0.13.

Turning to C3U U12C U73A, the self-cleavage came to 2.25. In the case of C3U U12C A79G, the self-cleavage amounted to 2.3. Next, U5A U12C C99A: 0.39; A2G U13C U130A U132A: 0.63; A2G U5A U85A A138G: 0.38. As to C3A U46C C146U, the self-cleavage was 1.72. Turning to C3A U15C U112C A124G A142G, the self-cleavage stood at 0. Turning to U5A A43G A50G U96A A121U, the self-cleavage worked out at 0.22. With G4A G82A U96C, the self-cleavage came to 0.06. As to A2G U39A A59U C98A, the self-cleavage is 0.23. Regarding A2G U52A A57U, the self-cleavage worked out at 0.25.

Turning to U5A A64U A65G A69G, the self-cleavage is 0.25. Under C3U A69G A142G stands 1.09; under A2G U104C U134G, 0.57. In the case of G4A G72A U81A, the self-cleavage came to 1.82. With A2G U39A U45C, the self-cleavage came to 2.23. In the case of A2G G21U U46C U96C A138G, the self-cleavage came to 0. Consider A2G U5A A77G U104A A107U A142G, for which the self-cleavage was 0.67. As for U5A A24G U39A A65G G122U, the self-cleavage came to 0.32. Next, U5A U13C C84U U112C: 0.23; A2U A22U A124G: 0.46; G4A U15C U115C: 0.27. Consider A2G U96C U102C U119A A121U, for which the self-cleavage is 0. Turning to A2G C76U U109C A121U, the self-cleavage is 1.17. As to G4U A78G A140G, the self-cleavage came to 0.95. With A2G U12C U15C U62A, the self-cleavage is 0.17. Next, A2U A31U U52A U85A C123U: 0.08. For U5A A6G U115C, the self-cleavage came to 0.74. For the variant C3A U26C G35A A77U A107G, the self-cleavage worked out at 1.08. Turning to U5C A6G U13G U47C U62C, the self-cleavage is 0. Turning to A2G U52A A64G U85C A138G U143C, the self-cleavage was found to be 0.

Turning to A2G A117U A141U, the self-cleavage was 1. For G4A U20C A69G A77G, the self-cleavage stood at 0.8. Regarding A2G U14A U62C, the self-cleavage amounted to 0.17.

With A2U U5A U13C A42U U73A A140G, the self-cleavage is 1.31. Take C3U G35U A142G: the self-cleavage worked out at 0.64. For the variant A2U G4A U39C, the self-cleavage is 0.59.

As to C3U U23C U73A, the self-cleavage is 1.15. Next, U5A A57U U132C: 0.19. In the case of U5A A42G A142G, the self-cleavage is 1.35. Next, G4A A94G U100C: 0.51. As for A2G U45C U46A U132A, the self-cleavage came to 1.08.

Regarding C3U U15A U73A, the self-cleavage is 0.37. As for A2U U29C A42G U52C A141G C146A, the self-cleavage is 2.63. Under U5C A22C C66U stands 0.21; under G4A A67C A77U U108C, 0.12; under U5A A57U A69U U134A, 0. In the case of C3A U13C U143C, the self-cleavage was 0.66. As for U5A U73C A77U, the self-cleavage was determined as 0.94. Next, A2U U47A U119A: 0.39; G4U A67U A92U U102C U132C: 0.17; C3U U14A A43U U112C: 0.32.

Consider G4A U13C U23A A129G, for which the self-cleavage was found to be 1.17.

For the variant A2G U9C U91C, the self-cleavage amounted to 0. Next, G4A U45C A121G A140G: 0.24. A2U A57G A69G A78G: the self-cleavage came to 0.

As for A2G U52A A138G, the self-cleavage stood at 0.78. In the case of C3U U12C A30G A121G A136G, the self-cleavage turned out to be 1.97. Next, A2U A59U A140G: 0.48; G4A U29C G74A: 1.03; G4C A50U U85C U100A: 0.1.

On to A2G U12A A69G, for which the self-cleavage came out at 0.64. In the case of C3U A30G U96G, the self-cleavage was determined as 0. Regarding A2G C90U A117G A136G, the self-cleavage amounted to 0.05. As to U5A U96G U134C, the self-cleavage is 0.46. Consider A2G U47A G74C U115A, for which the self-cleavage amounted to 0.57. Take C3U U14C U39C U45C U112C A136G: the self-cleavage was found to be 1.84. As for A2G A129G A138U, the self-cleavage was 0.37. On to U5A A31U A65G G93A A121G, for which the self-cleavage was 0. As for A2U U14C C37U A50G, the self-cleavage amounted to 0.12. With G4U A22G U26C U62C U115A A136G, the self-cleavage was found to be 0.38. Regarding A2G U39C C51A A140G, the self-cleavage was 1.2. With U5A U14C U23C A69U U130C, the self-cleavage was 0.27. Regarding C3U A42U U115C, the self-cleavage is 0.6.

Take C3U U12C U47A C118U: the self-cleavage came out at 0.67. Under G4A A42G U91A A136G stands 1.11; under U5A A42C C146U, 0.82. Turning to A2G U14C G53A A69G C76A, the self-cleavage came to 0.28.

On to A2G U14C U52A G58A C76U, for which the self-cleavage is 0.04.

Regarding C3A A124G U130C, the self-cleavage was 0.38.

As to G4A A42U U52C C68U U87C, the self-cleavage was 0.06. Consider U5A U26C U52G C61U A69G A79C, for which the self-cleavage came to 0. In the case of A2G U13G A22U G55A, the self-cleavage amounted to 0.26. For A2G U26C A64G U73A G122C, the self-cleavage was 0.32.

On to A2G C17G A67U A77G, for which the self-cleavage came out at 0.18.

On to A2G U73A U100C, for which the self-cleavage was found to be 1.63.

Consider A2G U13C U20A, for which the self-cleavage was found to be 0. Consider C3U A43U U47C A77G A129C, for which the self-cleavage stood at 1.08. On to A2G U14C U20C A124U, for which the self-cleavage is 0.27. For the variant G4U U5C A6U, the self-cleavage is 1.17. Next, A2G U62A A107G C120U: 0; G4C A30G U39C U87A A142G: 0.37.

As to G4C A50U A79U A129G, the self-cleavage was 1.4.

Turning to U5A A57G U108C, the self-cleavage was found to be 0.74. Next, G4U U5C U26A G53A A92U U109C: 0.36. Regarding A2G U46C U85A, the self-cleavage was 0.23.

Turning to A2G U52A A64U A92G A141G, the self-cleavage was determined as 0.45. Consider U5A G34A A140G, for which the self-cleavage is 0.54. Next, A2G U39A C63U A67U A141G: 0.11. Next, A2G U5C U45C: 0.33; A2G U23C U47A: 1.49. In the case of C3A A57G U100A, the self-cleavage stood at 0.19.

C3U U62C U130C A142G: the self-cleavage was 0.43. Take A2G U5C U14C: the self-cleavage is 1.38. Take C3U U15C U62C A64G: the self-cleavage was found to be 0.2. In the case of A2G G4A U12G U23C A77G, the self-cleavage amounted to 0.84. With C3A G34U U62C, the self-cleavage was determined as 0.03.

Turning to U5A G93U U132C A136G A138G, the self-cleavage is 0.05. Consider G4A A64C A107G, for which the self-cleavage stood at 0.32. For C3U A79G U85C, the self-cleavage turned out to be 0.25. As for A2G U9A U15A U62C, the self-cleavage is 0.13. Turning to G4A U20C U87C, the self-cleavage came to 0.44.

In the case of A2G U14C A59G A140U, the self-cleavage came to 0.3. For A2U G40A A69G, the self-cleavage is 0.2.
